Measurements taken from US4990497A, “Antifungal antibiotics” (priority 1989, dated 1991).

Columns and labels:
Candida albicans A9540 = assay: In vivo antifungal activity, Candida albicans intravenous infection in mice; design: species or system mice (male ICR); details: im b.i.d. on days 0 and 1, day 20; for ED50: Candida albicans, A9540, 480 h, read-out: PD50
Experimental: The methyl and ethyl esters of BU-3608 were also evaluated against C. albicans A9540 infections in mice using the protocol described above. […] It is postulated that these esters are hydrolyzed in vivo to provide the active parent compound.

[1] = system: Cryptococcus neoformans IAM 4514; assay: In vivo antifungal activity, Cryptococcus neoformans intravenous infection in mice; details: im b.i.d. on days 0 and 1, day 20
[2] = system: Aspergillus fumigatus IAM 2034; assay: In vivo antifungal activity, Aspergillus fumigatus intravenous infection in mice; design: species or system mice (male ICR); details: im b.i.d. on days 0 and 1, day 20, challenge 20x median lethal dose
[3] = challenge 20x (BU-3608) or 10x (B, C) median lethal dose
[4] = dose 3.1 mg/kg/inj., challenge 20x (BU-3608) or 10x (B, C) median lethal dose
[5] = dose 6.3 mg/kg/inj., challenge 20x (BU-3608) or 10x (B, C) median lethal dose
[6] = dose 12.5 mg/kg/inj., challenge 20x (BU-3608) or 10x (B, C) median lethal dose
[7] = dose 25 mg/kg/inj., challenge 20x (BU-3608) or 10x (B, C) median lethal dose

| Compound | ED50 (Candida albicans A9540; [3]) [mg/kg] | Number of survivors/tested [1, 4] | Number of survivors/tested [1, 5] | Number of survivors/tested [1, 6] | Number of survivors/tested [1, 7] | Number of survivors/tested (Candida albicans A9540; [4]) | Number of survivors/tested (Candida albicans A9540; [5]) | Number of survivors/tested (Candida albicans A9540; [6]) | Number of survivors/tested (Candida albicans A9540; [7]) | other results |
| --- | --- | --- | --- | --- | --- | --- | --- | --- | --- | --- |
| COc1cc(O)c2c(c1)C(=O)c1c(cc3c(c1O)-c1c(cc(C)c(C(=O)N[C@H](C)C(=O)O)c1O)C(O[C@@H]1O[C@H](C)[C@H](N)[C@H](O[C@@H]4OC[C@@H](O)[C@H](O)[C@H]4O)[C@H]1O)C3O)C2=O (stereo partly drawn) | 16 |  |  |  |  |  |  |  |  | Number of survivors/tested (Candida albicans A9540; dose 6.9 mg/kg/inj., challenge 10x median lethal dose): 0/5; Number of survivors/tested (Candida albicans A9540; dose 14 mg/kg/inj., challenge 10x median lethal dose): 2/5; Number of survivors/tested (Candida albicans A9540; dose 28 mg/kg/inj., challenge 10x median lethal dose): 5/5; Number of survivors/tested (Candida albicans A9540; dose 55 mg/kg/inj., challenge 10x median lethal dose): 5/5 |
| CN[C@@H]1[C@H](O)[C@@H](O)[C@H](OC2c3cc(C)c(C(=O)N[C@H](C)C(=O)O)c(O)c3-c3c(cc4c(c3O)C(=O)c3cc(OC)cc(O)c3C4=O)C2O)O[C@@H]1C (stereo partly drawn) [BU-3608 B] |  | 1/5 | 0/5 | 3/5 | 5/5 | 0/5 | 1/5 | 0/5 | 3/5 |  |
| CN[C@@H]1[C@H](O[C@@H]2OC[C@@H](O)[C@H](O)[C@H]2O)[C@@H](O)[C@H](OC2c3cc(C)c(C(=O)N[C@H](C)C(=O)O)c(O)c3-c3c(cc4c(c3O)C(=O)c3cc(OC)cc(O)c3C4=O)C2O)O[C@@H]1C (stereo partly drawn) [BU-3608] | 11 | 2/5 | 5/5 | 5/5 | 5/5 | 1/5 | 0/5 | 3/5 | 4/5 | Number of survivors/tested ([1]; dose 1.6 mg/kg/inj., challenge 20x median lethal dose): 1/5; Number of survivors/tested (Candida albicans A9540; dose 50 mg/kg/inj., challenge 20x median lethal dose): 5/5; ED50 ([2]; Aspergillus fumigatus, IAM2034, 480 h, read-out: PD50): 5.7 mg/kg; Number of survivors/tested ([2]; dose 1.6 mg/kg/inj.): 0/5; Number of survivors/tested ([2]; dose 3.1 mg/kg/inj.): 0/5; Number of survivors/tested ([2]; dose 6.3 mg/kg/inj.): 3/5; Number of survivors/tested ([2]; dose 12.5 mg/kg/inj.): 3/5; Number of survivors/tested ([2]; dose 25 mg/kg/inj.): 4/5 |
